Here are results for 17 molecules from the supplement of paper PMC9446081.

Hit rate of the full screen: of about 39,000 compounds, about 220 (0.56%) showed activity. The list shows a part of the results.
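Further: static incubation at 37 °C against the wild-type strain, values averaged over two biological replicates.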

For this assay, the system named is Escherichia coli K-12 BW25113. The assay is described as follows: relative growth (OD600 normalised to plate interquartile mean) (fraction); higher = less growth inhibition, active = 0.2 or less. Particulars: 50 µM; LB; incubation time: overnight (16-24 h).
Turning to `C1CCC(C(CC2CCCCN2)C2CCCCC2)CC1.O=C(O)C=CC(=O)O` (configuration not stated), the relative growth was inactive: 0.52.

Regarding `CN(c1c[nH]c(=O)[nH]c1=O)C1CCCCC1`, the relative growth is inactive: 1.03.

As for `C[C@@H]1CCCCO[C@H](CN(C)S(=O)(=O)c2ccc(F)cc2)[C@@H](C)CN([C@H](C)CO)C(=O)c2cc(NC(=O)Cc3ccccc3)ccc2O1`, the relative growth is inactive: 0.953.

With `CC(C)NC(=O)Nc1ccc2c(c1)CC(=O)N([C@@H](C)CO)C[C@H](C)[C@H](CN(C)C(=O)NC1CCCCC1)O2`, the relative growth was inactive: 0.929.

Turning to `Cc1ccc(S(=O)(=O)N(C)C[C@H]2OCCCC[C@H](C)Oc3ccc(NS(=O)(=O)c4ccc(F)cc4)cc3C(=O)N([C@H](C)CO)C[C@@H]2C)cc1`, the relative growth is inactive: 1.03.

Take `C[C@H]1CN([C@@H](C)CO)C(=O)c2cc(NC(=O)NC3CCCCC3)ccc2O[C@H]1CN(C)S(C)(=O)=O`: the relative growth is inactive: 1.01.

In the case of `COc1ccccc1NC(=O)N(C)C[C@@H]1Oc2ncc(C#CCN(C)C)cc2C(=O)N([C@H](C)CO)C[C@@H]1C`, the relative growth is inactive: 1.

`C[C@H]1CCCCO[C@@H](CN(C)Cc2ccc(C(=O)O)cc2)[C@@H](C)CN([C@@H](C)CO)C(=O)c2cc(NC(=O)Nc3ccc(F)cc3)ccc2O1`: the relative growth is inactive: 1.02.

`C[C@@H]1CN([C@H](C)CO)C(=O)c2cc(NC(=O)Nc3ccc4c(c3)OCO4)ccc2O[C@@H](C)CCCCO[C@@H]1CN(C)CC1CCCCC1`: the relative growth is inactive: 0.993.

Turning to `Cc1ccccc1S(=O)(=O)N1C[C@H](O)COC[C@@H]2O[C@@H](CC(=O)N3CCN(C)CC3)CC[C@H]21`, the relative growth is inactive: 1.01.

With `COc1ccc(S(=O)(=O)Nc2ccc3c(c2)C(=O)N([C@H](C)CO)C[C@@H](C)[C@@H](CN(C)S(=O)(=O)c2ccc(C)cc2)O3)cc1`, the relative growth is inactive: 1.06.

As to `C[C@@H]1CN([C@@H](C)CO)C(=O)c2cc(NC(=O)NC3CCCCC3)ccc2O[C@@H](C)CCCCO[C@H]1CN(C)CC1CCCCC1`, the relative growth was inactive: 0.905.

`CCc1nc2ccc(C(=O)Nc3cc(-c4ccccc4)ccc3OC)cn2c1N(C)Cc1ccc(Cl)cc1`: the relative growth was inactive: 1.01.

Consider `Cc1noc(C)c1NC(N)=O`, for which the relative growth was inactive: 0.995.

`COc1ccc(S(=O)(=O)N(C)C[C@@H]2Oc3c(NC(=O)Nc4c(C)noc4C)cccc3C(=O)N([C@H](C)CO)C[C@@H]2C)cc1`: the relative growth is inactive: 0.98.

For the molecule `O=C(O)[C@H](O)[C@@H](O)[C@H](O[C@@H]1O[C@H](CO)[C@H](O)[C@H](O)[C@H]1O)[C@H](O)CO`, the relative growth was inactive: 0.967.

Consider `Cc1noc(C)c1S(=O)(=O)Nc1cccc2c1O[C@@H](CN(C)C(=O)NC1CCCCC1)[C@@H](C)CN([C@@H](C)CO)C2=O`, for which the relative growth was inactive: 0.982.
